Measured values published in publication PMC8385146.
Results are given in words; binding and its absence hold for the method and conditions named. For some of these results: In cells and extracts the contact can be indirect. Some entries that bind do so weakly or less than the wild type. Where a sequence is shown, tags or fusion partners need not be part of it.

Key:
[1] = biological target: T1, SWIRM domain of SWI3B fused with BD (Arabidopsis thaliana) (UniProt Q84JG2); experiment: two-hybrid; directed test in yeast AH109; bait pGBKT7, prey pGADT7; growth on SD/-L-W-A-H; liquid β-galactosidase assay with ONPG
T1 sequence: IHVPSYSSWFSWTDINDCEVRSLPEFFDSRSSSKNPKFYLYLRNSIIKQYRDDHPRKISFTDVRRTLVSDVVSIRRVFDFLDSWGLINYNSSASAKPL

[2] = biological target: T2, SWI3B, full length, fused with BD (Arabidopsis thaliana) (UniProt Q84JG2); experiment: as above
T2 sequence: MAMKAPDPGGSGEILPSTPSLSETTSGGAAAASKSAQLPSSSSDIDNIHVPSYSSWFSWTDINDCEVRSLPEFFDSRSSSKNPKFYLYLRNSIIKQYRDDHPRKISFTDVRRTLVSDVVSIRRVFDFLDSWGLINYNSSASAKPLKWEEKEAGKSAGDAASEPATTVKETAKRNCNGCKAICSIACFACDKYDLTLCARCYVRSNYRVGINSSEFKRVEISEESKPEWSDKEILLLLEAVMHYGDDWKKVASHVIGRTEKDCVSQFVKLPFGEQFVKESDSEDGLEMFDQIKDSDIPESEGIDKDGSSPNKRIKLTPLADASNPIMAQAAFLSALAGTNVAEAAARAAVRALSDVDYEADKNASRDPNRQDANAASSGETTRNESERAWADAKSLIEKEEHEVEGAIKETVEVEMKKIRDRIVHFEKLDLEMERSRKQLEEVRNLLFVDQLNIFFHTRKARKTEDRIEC

[3] = biological target: T3, SANT domain of SWI3B fused with BD (Arabidopsis thaliana) (UniProt Q84JG2); experiment: as above
T3 sequence: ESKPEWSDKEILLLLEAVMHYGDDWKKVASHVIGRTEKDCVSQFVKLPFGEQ

[4] = substrate: T4, C terminal part of CFP-LFR (Arabidopsis thaliana) (UniProt Q9LS90); experiment: split reporter; BiFC (cCFP/nYFP) in epidermal cells of N. benthamiana leaves, Agrobacterium GV3101 co-infiltration, about 48 h, confocal microscopy
T4 sequence: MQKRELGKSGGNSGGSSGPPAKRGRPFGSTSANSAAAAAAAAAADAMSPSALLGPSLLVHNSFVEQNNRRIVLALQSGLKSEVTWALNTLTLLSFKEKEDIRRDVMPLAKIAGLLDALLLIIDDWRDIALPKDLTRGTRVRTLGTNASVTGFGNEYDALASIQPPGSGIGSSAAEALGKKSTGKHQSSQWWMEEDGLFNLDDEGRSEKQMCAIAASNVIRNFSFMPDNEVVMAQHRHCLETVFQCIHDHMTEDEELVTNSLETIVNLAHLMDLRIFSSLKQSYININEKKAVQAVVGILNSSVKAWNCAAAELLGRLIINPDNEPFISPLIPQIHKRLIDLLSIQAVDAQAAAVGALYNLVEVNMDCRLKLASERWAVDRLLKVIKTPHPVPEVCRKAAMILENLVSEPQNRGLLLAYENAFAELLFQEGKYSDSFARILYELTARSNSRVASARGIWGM

[5] = biological target: T5, SWI3B-3FLAG (Arabidopsis thaliana) (UniProt Q84JG2); experiment: co-IP; total protein extracts of Arabidopsis transgenic rescue seedlings; anti-FLAG M2 agarose beads, 1 h at 4°C; 50 mM Na2HPO4/NaH2PO4 pH 7.4, 150 mM NaCl, Triton X-100; blot with anti-SWI3B or anti-LFR; Col-0 as control
T5 sequence: T2 sequence

[6] = biological target: T6, LFRΔC2 (1-310 amino acids) fused with BD (Arabidopsis thaliana) (UniProt Q9LS90); experiment: two-hybrid; directed test in yeast AH109; bait pGBKT7, prey pGADT7; growth on SD/-L-W-A-H; liquid β-galactosidase assay with ONPG
T6 sequence: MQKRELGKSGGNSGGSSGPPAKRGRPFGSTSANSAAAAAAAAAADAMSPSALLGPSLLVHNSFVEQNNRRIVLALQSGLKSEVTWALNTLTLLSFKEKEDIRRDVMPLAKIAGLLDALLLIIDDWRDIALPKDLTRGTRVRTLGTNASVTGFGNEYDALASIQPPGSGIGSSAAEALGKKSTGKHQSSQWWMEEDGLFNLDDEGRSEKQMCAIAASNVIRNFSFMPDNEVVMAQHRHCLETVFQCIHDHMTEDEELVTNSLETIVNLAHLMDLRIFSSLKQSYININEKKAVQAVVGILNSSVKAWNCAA

B1: Leaf and Flower Related (LFR), full length, fused with AD (protein, UniProt Q9LS90 1-460)
chain: T4 sequence
B1 was tested, and the binding [1] was “binds”, the binding [2] was “binds” and the binding [3] was “binds”.

B2: nYFP-AS2 (… LEAVES2) (protein, UniProt O04479 1-199)
chain: MASSSTNSPCAACKFLRRKCQPECVFAPYFPPDQPQKFANVHKVFGASNVTKLLNELHPSQREDAVNSLAYEADMRLRDPVYGCVGVISLLQHQLRQLQIDLSCAKSELSKYQSLGILAATHQSLGINLLAGAADGTATAVRDHYHHHQFFPREQMFGGLDVPAGNNYDGGILAIGQITQFQQPRAAAGDDGRRTVDPS
With B2 the binding [4] was “binds”.

B3: endogenous LFR (protein, UniProt Q9LS90 1-460)
chain: T4 sequence
With B3 the binding [5] was “binds”.

B4: SWI3C fused with AD (protein, UniProt Q9XI07 1-807)
chain: MPASEDRRGKWKRKKRGGLSAARKPKQEEEDMEEEDEENNNNNNEEMDDVENADELQQNGGATPDPGLGIGEVVEDSGSRISDFPAVVKRVVIRPHASVMAVVAAERAGLIGETRGQGSLPALENISFGQLQALSTVPADSLDLERSDGSSSAYVISPPPIMDGEGVVKRFGDLVHVLPMHSDWFAPNTVDRLERQVVPQFFSGKSPNHTPESYMEFRNAIVSKYVENPEKTLTISDCQGLVDGVDIEDFARVFRFLDHWGIINYCATAQSHPGPLRDVSDVREDTNGEVNVPSAALTSIDSLIKFDKPNCRHKGGEVYSSLPSLDGDSPDLDIRIREHLCDSHCNHCSRPLPTVYFQSQKKGDILLCCDCFHHGRFVVGHSCLDFVRVDPMKFYGDQDGDNWTDQETLLLLEAVELYNENWVQIADHVGSKSKAQCILHFLRLPVEDGLLDNVEVSGVTNTENPTNGYDHKGTDSNGDLPGYSEQGSDTEIKLPFVKSPNPVMALVAFLASAVGPRVAASCAHESLSVLSEDDRMKSEGMQGKEASLLDGENQQQDGAHKTSSQNGAEAQTPLPQDKVMAAFRAGLSAAATKAKLFADHEEREIQRLSANIVNHQLKRMELKLKQFAEIETLLMKECEQVEKTRQRFSAERARMLSARFGSPGGISPQTNNLQGMSLSTGGNNINSLMHQQHQQQQASATSQPSIIPGFSNNPQVQAQMHFMARQQQQQQQQQQQQQQAFSFGPRLPLNAIQTNAGSTASPNVMFGNNQLNNPAAAGAASINQPSFSHPMVRSSTGSGSGSGLGLN
B4 was tested, and the binding [6] was “no binding”.

B5: SWI3D fused with AD (protein, UniProt Q8VY05 1-985)
chain: MEEKRRDSAGTLAFAGSSGDSPASEPMPAPRRRGGGLKRKANALGGSNFFSSAPSKRMLTREKAMLASFSPVHNGPLTRARQAPSIMPSAADGVKSEVLNVAVGADGEKPKEEEERNKAIREWEALEAKIEADFEAIRSRDSNVHVVPNHCGWFSWEKIHPLEERSLPSFFNGKLEGRTSEVYREIRNWIMGKFHSNPNIQIELKDLTELEVGDSEAKQEVMEFLDYWGLINFHPFPPTDTGSTASDHDDLGDKESLLNSLYRFQVDEACPPLVHKPRFTAQATPSGLFPDPMAADELLKQEGPAVEYHCNSCSADCSRKRYHCPKQADFDLCTECFNSGKFSSDMSSSDFILMEPAEAPGVGSGKWTDQETLLLLEALEIFKENWNEIAEHVATKTKAQCMLHFLQMPIEDAFLDQIDYKDPISKDTTDLAVSKDDNSVLKDAPEEAENKKRVDEDETMKEVPEPEDGNEEKVSQESSKPGDASEETNEMEAEQKTPKLETAIEERCKDEADENIALKALTEAFEDVGHSSTPEASFSFADLGNPVMGLAAFLVRLAGSDVATASARASIKSLHSNSGMLLATRHCYILEDPPDNKKDPTKSKSCSADAEGNDDNSHKDDQPEEKSKKAEEVSLNSDDREMPDTDTGKETQDSVSEEKQPGSRTENSTTKLDAVQEKRSSKPVTTDNSEKPVDIICPSQDKCSGKELQEPLKDGNKLSSENKDASQSTVSQSAADASQPEASRDVEMKDTLQSEKDPEDVVKTVGEKVQLAKEEGANDVLSTPDKSVSQQPIGSASAPENGTAGGNPNIEGKKEKDICEGTKDKYNIEKLKRAAISAISAAAVKAKNLAKQEEDQIRQLSGSLIEKQLHKLEAKLSIFNEAESLTMRVREQLERSRQRLYHERAQIIAARLGVPPSMSSKASLPTNRIAANFANVAQRPPMGMAFPRPPMPRPPGFPVPGSFVAATTMTGSSDPSPGSDNVSSV
In the case of B5, the binding [6] is reported as “no binding”.
